In PubChem BioAssay AID504332 (National Center for Advancing Translational Sciences (NCATS), 2011):
Hit rate of the full screen: of about 350,000 compounds, about 31,000 (8.9%) were called active. This list was built around the results that the source calls inconclusive (neither active nor inactive); the mix of calls is not that of the screen. Calls come from the whole dose curve; as a rule, active = well fitted inhibition curve with a large enough effect; inconclusive = small, poorly fitted or top-dose-only effect; inactive = no such curve, though single readings can be large or run the other way. Potencies of inconclusive entries are doubtful fits and often do not repeat.

Molecular target: Histone-lysine N-methyltransferase EHMT2 (Homo sapiens) (UniProt Q96KQ7)
Chain of UniProt Q96KQ7 (Q96KQ7 whole entry, looked up): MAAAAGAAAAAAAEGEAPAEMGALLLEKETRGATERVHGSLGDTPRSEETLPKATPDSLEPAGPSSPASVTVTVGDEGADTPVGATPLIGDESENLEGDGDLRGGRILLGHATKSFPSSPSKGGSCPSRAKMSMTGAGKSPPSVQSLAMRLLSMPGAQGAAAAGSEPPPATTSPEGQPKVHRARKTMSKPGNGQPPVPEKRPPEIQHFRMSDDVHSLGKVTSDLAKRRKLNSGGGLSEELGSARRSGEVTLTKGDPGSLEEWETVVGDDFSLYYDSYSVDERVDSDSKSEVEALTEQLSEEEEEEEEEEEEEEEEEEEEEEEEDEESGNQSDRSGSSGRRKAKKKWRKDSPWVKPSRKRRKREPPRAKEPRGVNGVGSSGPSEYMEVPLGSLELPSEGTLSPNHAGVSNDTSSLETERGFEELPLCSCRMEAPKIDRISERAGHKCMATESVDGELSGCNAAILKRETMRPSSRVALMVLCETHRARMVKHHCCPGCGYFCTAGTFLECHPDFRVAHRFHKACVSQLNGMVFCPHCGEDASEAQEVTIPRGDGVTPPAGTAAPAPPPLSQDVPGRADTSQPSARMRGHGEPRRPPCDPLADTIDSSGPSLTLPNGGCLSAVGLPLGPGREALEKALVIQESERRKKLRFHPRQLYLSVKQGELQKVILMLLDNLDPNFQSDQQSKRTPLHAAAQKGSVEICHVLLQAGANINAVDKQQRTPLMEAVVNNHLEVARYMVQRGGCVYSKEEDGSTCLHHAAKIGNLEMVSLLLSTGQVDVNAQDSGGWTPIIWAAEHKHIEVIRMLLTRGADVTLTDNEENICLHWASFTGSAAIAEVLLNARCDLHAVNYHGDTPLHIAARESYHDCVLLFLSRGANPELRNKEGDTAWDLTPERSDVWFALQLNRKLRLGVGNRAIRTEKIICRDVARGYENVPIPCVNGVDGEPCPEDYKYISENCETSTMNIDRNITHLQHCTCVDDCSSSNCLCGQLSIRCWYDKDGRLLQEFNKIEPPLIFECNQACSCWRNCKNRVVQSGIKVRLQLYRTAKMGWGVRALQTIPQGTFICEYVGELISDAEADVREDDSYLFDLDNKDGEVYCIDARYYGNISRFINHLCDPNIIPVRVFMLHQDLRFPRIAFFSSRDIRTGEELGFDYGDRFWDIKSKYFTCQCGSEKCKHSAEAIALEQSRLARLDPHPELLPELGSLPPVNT
Assay: qHTS Assay for Inhibitors of Histone Lysine Methyltransferase G9a; note: nearly all actives have a fitted effect of over 75% in size
Settings: G9a H3K9 monomethylation, AlphaScreen, 2 h; activity, negative = inhibition: at 59 µM (top of the series) unless noted
Summary of the method: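 AlphaScreen read-out: biotin-H3K9 peptide (500 nM) methylation by 20 nM enzyme with 20 uM SAM, 2 h at room temperature after 15 min compound preincubation; anti-monomethyl H3K9 antibody plus donor/acceptor beads, 10 min dark.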
% is set by controls: 0 for no effect and ±100 for the full control effect; potency is the fitted concentration of half-maximal effect; tags give direction and shape of the fitted curve.

SMILES | activity, negative = inhibition | Potency
CCCCCc1ccc(C(=O)CCC(=O)OCC(=O)N(CC)c2c(N)n(Cc3ccccc3)c(=O)[nH]c2=O)cc1 | inactive: 23.7% [at 102 µM] | 
COc1ccc(-c2coc3cc(OC)cc(OC)c3c2=O)cc1 | inconclusive: -78.8% [inhibitor] | 
Cc1cccc(NS(=O)(=O)c2ccc(Oc3ccccc3)cc2)n1 |  | inconclusive: 89.1 µM [inhibitor, partial curve, poor fit]
COC(=O)Cn1c(=O)c(C(=O)CCl)c(N)n(Cc2ccccc2)c1=O |  | inconclusive: 89.1 µM [inhibitor, single point]
CCCN1C(=O)C(Cc2nc3ccccc3c(=O)n2-c2cccc(C)c2)c2ccccc21 (stereo not given) | inactive: -35.1% | 
CCOc1ccc(S(=O)(=O)NN2Cc3ccccc3C2=N)cc1 |  | inconclusive: 17.8 µM [inhibitor, full curve]
CCC(C)(C)NC(=O)C(c1ccc(OC)cc1)N(C(=O)CCC(=O)Nc1cc(C)on1)c1ccc2c(c1)OCCO2 (stereo not given) | inactive: 10.1% [at 102 µM] | 
Cc1cc(C(=O)Oc2cccnc2)ccc1[N+](=O)[O-] |  | inconclusive: 22.4 µM [inhibitor, single point]
CCCCC1=CC2=C(c3ccco3)C(=O)C(C)(OC(=O)c3ccc(OC)cc3)C(=O)C2=CN1CCCCO (stereo not given) | inactive: -2.12% [at 12.7 µM] | 
CCCCCCCCc1nnc(NC(=O)c2ccco2)s1 | inactive: -2.97% [at 102 µM] | 
CCC(C)(C(=O)NC1CCCC1)N(Cc1cccs1)C(=O)Cc1cccs1 (stereo not given) |  | inconclusive: 31.6 µM [inhibitor, single point]
CCN(CC)C(=O)Cn1cnc2sc(C(=O)N3CCN(Cc4ccc5c(c4)OCO5)CC3)c(C)c2c1=O |  | inconclusive: 89.1 µM [inhibitor, single point]
NNc1ccc(Cl)c(C(=O)O)c1 |  | active: 1.26 µM
CCOC(=O)CSc1nnc(-c2ccco2)n1-c1ccccc1 |  | inconclusive: 39.8 µM [inhibitor, single point]
CCOc1cccc(=O)c2c(C)n(Cc3ccco3)c(C)c12 |  | inconclusive: 10 µM [inhibitor, partial curve]
CC(C(=O)O/N=C(\N)c1cccnc1)c1ccc([N+](=O)[O-])cc1 (stereo not given) |  | inconclusive: 31.6 µM [inhibitor, partial curve, poor fit]
Cc1ccc(C2=CC(c3c(F)cccc3Cl)n3ncnc3N2)cc1C (stereo not given) | inactive: -2.51% | 
COCCSc1ccccc1C(=O)Nc1cccnc1 |  | active: 1.58 µM
COc1cccc(N2CCN(CC(=O)c3c[nH]c4ccc(OC)cc34)CC2C)c1 (stereo not given) |  | inconclusive: 3.16 µM [inhibitor, single point]
NC(=O)C1=C[C@H](c2csc3ccccc23)C[C@H](OCc2ccc(CO)cc2)O1 | inconclusive: -53.4% [inhibitor] | 
O=C(Nc1ncn[nH]1)C(F)(F)C(F)F |  | inconclusive: 2.82 µM [inhibitor, partial curve, poor fit]
Cc1cccc(-c2noc(-c3ccc(N4CCN(C)CC4)c([N+](=O)[O-])c3)n2)c1 | inactive: -27.2% | 
COc1ccc(NCc2n[nH]nc2-c2ccccc2)cc1Cl |  | inconclusive: 15.8 µM [inhibitor, single point]

SMILES | activity, negative = inhibition | Potency
COc1cccc(C2C(C(=O)Nc3ccccc3)=C(C)Nc3nc(-c4ccccc4)nn32)c1OC (stereo not given) |  | inconclusive: 11.2 µM [inhibitor, partial curve]
COc1ccc2nc(SCC(=O)Nc3cc(C)on3)[nH]c2c1 | inactive: 10.7% [at 102 µM] | 
Cc1nc(NS(=O)(=O)c2ccccc2)sc1C(=O)NNS(=O)(=O)c1ccccc1 |  | active: 50.1 µM
CC1CCN(c2nc3ccc(C(=O)N4CCN(Cc5ccc6c(c5)OCO6)CC4)cc3s2)CC1 |  | active: 28.2 µM
Cc1ccc2nc(SCC(=O)Nc3cc([N+](=O)[O-])ccc3F)[nH]c2c1 |  | active: 25.1 µM
Cc1ccc(C(=O)N2CCC3(CC2)Oc2ccc(Cl)cc2C(=O)C32CC(c3cccnc3)=NO2)s1 (stereo not given) | inconclusive: -67.3% [inhibitor] | 
Cc1nnc(SCC(=O)Nc2nsc(-c3ccc(C(C)(C)C)cc3)n2)s1 | inactive: -11.1% [at 102 µM] | 
CCCCNC(=O)CSc1nnc(C)c2c(C)n(-c3ccccc3)nc12 | inactive: -7.95% | 
O=C1CCC(=O)N1CNc1ccc(Oc2ccccc2)cc1 |  | inconclusive: 39.8 µM [inhibitor, partial curve, poor fit]
CC(C)C(c1nnnn1C(C)(C)C)N1CCOCC1 (stereo not given) |  | active: 39.8 µM
O=C(O)c1cc([N+](=O)[O-])ccc1NCc1ccccc1 |  | inconclusive: 50.1 µM [inhibitor, partial curve, poor fit]
Cc1cc(C=O)c(C)n1-c1cccc(C(=O)O)c1 |  | active: 39.8 µM
N/C(=N\OC(=O)Cc1ccccc1[N+](=O)[O-])c1ccc(Br)cc1 |  | inconclusive: 2.24 µM [inhibitor, partial curve, poor fit]
Oc1c(C(Nc2cccc(C(F)(F)F)c2)c2ccncc2)ccc2cccnc12 (stereo not given) |  | active: 28.2 µM
CCOC(=O)c1c(C)[nH]c(C(=O)Nc2ccc(NC(C)=O)cc2)c1C |  | inconclusive: 44.7 µM [inhibitor, partial curve, poor fit]
O=C(CCN1CCN(S(=O)(=O)c2ccc(Br)cc2)CC1)Nc1ccccc1F |  | inconclusive: 79.4 µM [inhibitor, partial curve, poor fit]
CC(C)NC(=O)C1CCN(c2nc3ccccc3nc2C(F)(F)F)CC1 | inactive: -5.87% | 
Cc1cc(=O)n2[nH]c(C)c(-c3ccccc3)c2n1 |  | inconclusive: 79.4 µM [inhibitor, partial curve, poor fit]
CC(C)Cn1c(-c2ccc(C#N)cc2)nc2c1c(=O)[nH]c(=O)n2CC(C)C |  | inconclusive: 22.4 µM [inhibitor, single point]
COc1ccc(S(=O)(=O)Nc2cc3c4c(c2)CCN4C(=O)CC3)cc1 | inactive: -34.5% [at 102 µM] | 
COc1ccc(C(=O)COC(=O)Cn2c(C)csc2=O)c(OC)c1 |  | inconclusive: 89.1 µM [inhibitor, partial curve, poor fit]
COc1ccc(/C=C/C(=O)N2CCN(S(=O)(=O)/C=C/c3ccccc3)CC2)cc1OC |  | inconclusive: 3.98 µM [inhibitor, partial curve]
